Out of some 280,000 compounds screened, about 100 (0.036%) were called active. Inconclusive results, whose numbers are uncertain, are shown with a selection of clear calls. The call rests on the fitted dose curve; in most records, active means well fitted inhibition curve with a large enough effect in the signal ratio, with a control signal flat (not every such curve was filed as active); inconclusive means small, poorly fitted or top-dose-only effect, or effect the other way, or a change in a side signal; inactive means no such curve, though single readings can be large or run the other way; the % refers to the signal ratio. Potencies of inconclusive entries are doubtful fits and often do not repeat. A note “side channel” means that the fit belongs to a control or component signal, not to the main read-out.
What follows are molecules tested against Muscleblind-like protein 1 (Homo sapiens) (UniProt Q9NR56) (assay: qHTS Assay for Inhibitors of MBNL1-poly(CUG) RNA binding). Conditions: TR-FRET MBNL1-His/biotin-(CUG)12 binding, 665/545 ratio; activity change, negative = inhibition: at 57.5 µM (top of the series).
UniProt Q9NR56, sequence (Q9NR56 whole entry, looked up): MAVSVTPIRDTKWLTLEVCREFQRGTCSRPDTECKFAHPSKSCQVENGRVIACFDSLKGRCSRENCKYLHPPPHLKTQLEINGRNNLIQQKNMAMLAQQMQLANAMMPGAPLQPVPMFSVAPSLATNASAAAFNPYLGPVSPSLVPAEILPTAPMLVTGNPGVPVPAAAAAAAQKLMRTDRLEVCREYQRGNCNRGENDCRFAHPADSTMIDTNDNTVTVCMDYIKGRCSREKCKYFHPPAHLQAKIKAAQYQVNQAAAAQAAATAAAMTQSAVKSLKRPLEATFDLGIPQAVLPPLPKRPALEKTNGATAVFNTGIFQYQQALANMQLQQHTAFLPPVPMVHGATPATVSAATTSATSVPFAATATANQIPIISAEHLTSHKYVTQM
In short: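 MBNL1-His + Biotin-(CUG)12, cpd titration 92 nM–58 uM; Tb anti-His Ab 0.055 ng/ul, SA-XL665 5 nM (final); 60 min RT; ratiometric 665/545 nm, Ex 340 nm; normalized to buffer and full-complex controls.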
On the % scale 0 is the no-effect control and ±100 the full control effect; potency means the concentration at half of the fitted maximal effect; tags describe the fitted curve by direction and shape or compound fluorescence and quenching.

Row | Structure (SMILES) | Potency | activity change, negative = inhibition
1 | N#Cc1c(N2CCCC(O)C2)nc(N)c2c(N)nc3c(c12)CC(=O)N3C12CC3CC(CC(C3)C1)C2 (centres undefined) | inconclusive: 31.6 µM [quencher, single point] | –
2 | COc1cc(/C=C(\C#N)C(=O)Nc2ccccn2)ccc1O | inconclusive: 15.8 µM [quencher, side channel, partial curve] | –
3 | CCc1ccc2[nH]c3nc(SCCN4CCOCC4)nnc3c2c1 | inconclusive: 4.47 µM [quencher, side channel, partial curve] | –
4 | COc1ccc(Cn2c(=N)c(C(=O)NCC3CCCO3)cc3c(=O)n4ccccc4nc32)cc1 (centres undefined) | inconclusive: 7.94 µM [quencher, side channel, partial curve] | –
5 | CN(C)/C=C1\SC(=S)N(c2ccc(F)cc2)C1=O | inconclusive: 12.6 µM [quencher, side channel, partial curve] | –
6 | O=C(/C=C/c1ccc(F)cc1)NC(=S)N1CCN(Cc2ccccc2)CC1 | – | inactive: 2.12%
7 | O=C(Nc1ccccc1)c1ccc(N2CCN(c3ccccc3)CC2)c(S(=O)(=O)N2CCOCC2)c1 | inconclusive: 39.8 µM [fluorescent, single point] | –
8 | O=C1c2ccccc2-c2nc3ccccc3nc21 | inconclusive: 2.51 µM [quencher, side channel, full curve] | –
9 | Cc1ccc(-n2c(-c3ccncc3)n[nH]c2=S)cc1 | – | inactive: -8.55%
10 | Cc1nc2sc(C#N)c(N)c2c2c1CCCC2 | inconclusive: 14.1 µM [quencher, side channel, partial curve] | –
11 | CCOC(=O)c1ccc2[nH]c3c(c2c1)CCCC3C(=O)OCC (centres undefined) | – | inactive: 4.21%
12 | CCOc1ccccc1Nc1cc(C)c2cccc(C)c2n1 | – | inactive: -0.795%
13 | O=C(Cn1cncc1-c1ccc([N+](=O)[O-])cc1)Nc1ccccc1F | inconclusive: 1.26 µM [quencher, side channel, full curve] | –
14 | COc1ccc(C(=O)OCC(=O)N2C(C)CCCC2C)cc1[N+](=O)[O-] (centres undefined) | inconclusive: 14.1 µM [quencher, partial curve] | –
15 | COC(=O)c1c(NC(=O)Cc2cccs2)sc(C(=O)N2CCCCC2)c1C | inconclusive: 39.8 µM [quencher, side channel, single point] | –
16 | O=C(Cc1cc(=O)[nH]c(=O)[nH]1)NCc1ccc(Cl)cc1 | inconclusive: 100 µM [inhibitor, single point] | –
17 | COc1cccc2cc(C(=O)OCc3ccccc3)c(=O)oc12 | inconclusive: 5.62 µM [quencher, side channel, partial curve] | –
18 | O=C(Nc1nc(-c2ccccc2)cs1)c1cccc([N+](=O)[O-])c1 | inconclusive: 22.4 µM [quencher, side channel, partial curve] | –
19 | COC(=O)c1ccccc1NS(=O)(=O)c1ccc2c3c(cccc13)C(=O)N2 | inconclusive: 11.2 µM [quencher, side channel, partial curve] | –
20 | CN(C)c1ccc(N=Nc2ccccc2C(=O)OCC(=O)N2CCCC2)cc1 | inconclusive: 12.6 µM [quencher, side channel, partial curve] | –

Row | Structure (SMILES) | Potency | activity change, negative = inhibition
21 | CCC(Cc1ccccc1)NC(=O)C1CCN(c2nn3c(=O)cc(C)nc3s2)CC1 (centres undefined) | – | inactive: 7.24%
22 | CN(/N=C/c1ccncc1)C1=NS(=O)(=O)c2ccccc21 | – | inactive: 16.2%
23 | CSc1cnn(Cc2ccccc2)c(=O)c1SCc1ccccc1 | inconclusive: 17.8 µM [quencher, side channel, partial curve] | –
24 | CN1CCc2c(sc3nc(SCC(=O)N4CCOCC4)n(-c4ccc(Cl)cc4)c(=O)c23)C1 | inconclusive: 31.6 µM [quencher, single point] | –
25 | CCN(CC)S(=O)(=O)c1ccc(NN=C2CCN(C)CC2)c([N+](=O)[O-])c1 | inconclusive: 15.8 µM [quencher, side channel, partial curve] | –
26 | O=C(CCS(=O)(=O)c1ccccc1)Nc1ccccn1 | – | inactive: -4.99%
27 | Cc1ccc(C)c(NC(=O)CSc2nc3[nH]ncc3c(=O)[nH]2)c1 | inconclusive: 7.94 µM [fluorescent, side channel, full curve, poor fit] | –
28 | Cc1cccc(CSCc2ccc(C(=O)O)o2)c1 | – | inactive: -13.3%
29 | Cc1cc(NS(=O)(=O)c2ccc(NC(=O)/C=C/c3cccc(Cl)c3)cc2)no1 | inconclusive: 28.2 µM [quencher, side channel, single point] | –
30 | CC(=O)/C(N=Nc1ccc(SC(F)F)cc1)=C(\C)O | inconclusive: 11.2 µM [quencher, side channel, partial curve] | –
31 | N/C(=N\OC(=O)COc1ccccc1)c1ccc(Cl)cc1 | inconclusive: 3.55 µM [fluorescent, side channel, partial curve] | –
32 | Cn1cc(CN2CCCC(C(=O)c3nccn3C)C2)c(-c2cccc(Cl)c2)n1 (centres undefined) | inconclusive: 0.708 µM [fluorescent, side channel, single point] | –
33 | COc1ccc(-c2cc(=O)oc3cc(OCC(=O)N4C[C@H]5C[C@@H](C4)c4cccc(=O)n4C5)ccc23)cc1 | inconclusive: 2.82 µM [quencher, side channel, full curve, poor fit] | –
34 | Cc1cc2c(cc1C)N(C(=O)CSC1=NCCS1)C(C)(C)c1ssc(=S)c1-2 | inconclusive: 25.1 µM [quencher, side channel, single point] | –
35 | Cc1cccc(-c2onc3ccc(C(=O)/C=C/N(C)C)cc23)c1 | inconclusive: 35.5 µM [quencher, side channel, single point] | –
36 | COC(=O)c1ccccc1N=C(SC)N(C)C | – | inactive: -10.4%
37 | O=S(=O)(Nc1cc(F)ccc1F)c1cccc2nsnc12 | inconclusive: 28.2 µM [quencher, side channel, single point] | –
38 | COCCNC(=O)Cn1cc(/C=C(\C#N)C(=O)NC2CC2)c2ccccc21 | inconclusive: 25.1 µM [quencher, side channel, partial curve] | –
39 | O=C(O)C1Nc2c(C(=O)N3CCOCC3)cccc2C2C=CCC12 (centres undefined) | inconclusive: 28.2 µM [quencher, side channel, single point] | –

Reference: PubChem BioAssay AID2675 (National Center for Advancing Translational Sciences (NCATS), 2010)
